Results taken from PubChem BioAssay AID886 (National Center for Advancing Translational Sciences (NCATS), 2007).
In all, about 73,000 compounds went through this assay and about 2,500 (3.4%) were called active. Inconclusive results, whose numbers are uncertain, are shown with a selection of clear calls. The call rests on the fitted dose curve; in most records, active means well fitted inhibition curve with a large enough effect; inconclusive means small, poorly fitted or top-dose-only effect; inactive means no such curve, though single readings can be large or run the other way. Where the call is inconclusive, the potency comes from a doubtful curve fit.

biological target: 3-hydroxyacyl-CoA dehydrogenase type-2 (Homo sapiens) (UniProt Q99714); assay: qHTS Assay for Inhibitors of HADH2 (Hydroxyacyl-Coenzyme A Dehydrogenase, Type II); conditions: recombinant HADH2, NADH fluorescence, beta-hydroxybutyryl-CoA; activity change, negative = inhibition: at 57.1 µM (top of the series); further: nearly all actives have a fitted effect of over 60% in size
Chain of UniProt Q99714 (Q99714 whole entry, looked up): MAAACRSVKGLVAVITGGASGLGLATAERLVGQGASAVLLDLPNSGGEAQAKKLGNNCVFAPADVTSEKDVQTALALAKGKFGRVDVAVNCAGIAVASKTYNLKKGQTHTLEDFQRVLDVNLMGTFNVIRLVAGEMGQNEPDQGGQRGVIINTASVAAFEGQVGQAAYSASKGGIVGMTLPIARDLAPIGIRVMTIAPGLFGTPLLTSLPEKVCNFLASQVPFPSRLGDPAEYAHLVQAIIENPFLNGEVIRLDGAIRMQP
Chain of UniProt Q99714 (Q99714 whole entry, looked up): as above
Procedure, shortened: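 Buffer 100 mM Tris-HCl pH 9.0/0.01% Tween-20; HADH2 20 nM; NAD+ 1 mM; beta-hydroxybutyryl-CoA 90 uM (all final). 15 min cpd preincubation, RT.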
On the % scale 0 is the no-effect control and ±100 the full control effect; potency means the concentration at half of the fitted maximal effect; tags describe the fitted curve by direction and shape.

| SMILES | Potency | activity change, negative = inhibition |
| --- | --- | --- |
| CCOC(=O)C1CCN(S(=O)(=O)c2cn(C)c(=O)n(C)c2=O)CC1 | inconclusive: 39.8 µM [inhibitor, single point] | – |
| CN1C(=O)C2(OCC(COc3ccc(Cl)cc3)O2)c2ccccc21 (stereo not given) | inconclusive: 0.158 µM [inhibitor, full curve, poor fit] | – |
| CCN(C(=O)c1cn(C)c(=O)c2cc(OC)c(OC)cc12)c1cc(OC)ccc1OC | – | inactive: 7.17% |
| O=C(Nc1ccc(-c2nc3ccccc3[nH]2)cc1)c1ccco1 | inconclusive: 31.6 µM [inhibitor, single point] | – |
| O=C(NCc1cccc2ccccc12)[C@H]1C[C@@H]1[C@H](NP(=O)(c1ccccc1)c1ccccc1)c1ccccc1 | – | inactive: 10% |
| Cn1c(SCc2nc3ccccc3s2)nnc1-c1cccs1 | inconclusive: 25.1 µM [inhibitor, partial curve] | – |
| N#CC1=C(N)NC(SCC(=O)Nc2ccccc2)=C(C#N)C12CCCC2 | inconclusive: 31.6 µM [inhibitor, single point] | – |
| O=c1c2ccccc2sn1-c1ccc(S(=O)(=O)N2CCCC2)cc1 | active: 0.126 µM | – |
| CC(Sc1sc(=S)sc1SC(C)C(=O)O)C(=O)O (stereo not given) | inconclusive: 31.6 µM [inhibitor, partial curve] | – |
| Cn1c(C(=O)NCCCN2CCCC2=O)cc2c(=O)n3ccccc3nc21 | active: 25.1 µM | – |
| COC(=O)c1sc(N)c(C(=O)OC)c1COC(=O)C1CC(=O)N(Cc2ccco2)C1 (stereo not given) | inconclusive: 39.8 µM [inhibitor, single point] | – |
| COc1ccc2nc(SCC(=O)N(C)C3CCCCC3)c(C#N)cc2c1 | – | inactive: 3.59% |
| CCCOc1ccc(Cc2nc(N)nc(N)n2)cc1 | inconclusive: 12.6 µM [inhibitor, partial curve] | – |
| CCOC(=O)OCC1OC(C#Cc2ccc(Br)cc2)C=CC1OC(=O)OCC (stereo not given) | inconclusive: 6.31 µM [inhibitor, single point] | – |
| Cc1ccsc1C(=O)OCC(=O)N1CCOCC1 | – | inactive: 2.15% |
| CCCCCn1c(SCCN2CCOCC2)nc2c1c(=O)[nH]c(=O)n2C | inconclusive: 31.6 µM [inhibitor, single point] | – |
| CCOCCCn1c(=S)[nH]c2cc3c(cc2c1=O)OCO3 | – | inactive: -9.09% |
| CC1(C)CC(NC(=O)c2coc(=O)c(Br)c2)CC(C)(C)N1 | inconclusive: 39.8 µM [inhibitor, single point] | – |
| c1cncc(-c2nn3c(Cn4cnc5ccccc54)nnc3s2)c1 | active: 0.631 µM | – |
| O=C1NC(c2ccco2)Nc2ccccc21 (stereo not given) | inconclusive: 31.6 µM [inhibitor, single point] | – |
| O=C(c1cccs1)c1ccc(-c2cccs2)s1 | inconclusive: 15.8 µM [inhibitor, partial curve] | – |
| O=C(c1ccc(Br)s1)N1CCN(c2ncccn2)CC1 | – | inactive: -2.62% |
| FC(F)(F)c1ccccc1-c1ccc2ncnc(NCc3cccs3)c2c1 | – | inactive: -0.785% |
| COc1ccc(OC)c(Nc2nc(-c3ccc(O)c(O)c3)cs2)c1 | active: 0.126 µM | – |
| COc1ccc(CCNC(=O)c2ccc3nc(-c4ccco4)c(-c4ccco4)nc3c2)cc1OC | active: 6.31 µM | – |

| SMILES | Potency | activity change, negative = inhibition |
| --- | --- | --- |
| COc1cccc(-c2n[nH]c(=S)n2Cc2ccco2)c1OC | inconclusive: 5.01 µM [inhibitor, single point] | – |
| O=C1c2cccc3cccc(c23)C(=O)N1c1cccnc1 | active: 25.1 µM | – |
| COc1ccc(-c2nnc(CSc3nc4ccccc4c(=O)n3CC(C)C)o2)cc1OC | – | inactive: 2.1% |
| N#Cc1nc(-c2ccccc2)oc1NCCN1CCCCC1 | inconclusive: 31.6 µM [inhibitor, single point] | – |
| CN(C)c1ccc(-c2nc(N(C)Cc3ccco3)c3ccccc3n2)cc1 | inconclusive: 39.8 µM [inhibitor, single point] | – |
| Cn1ccnc1C[C@@](C)(O)c1ccccc1 | – | inactive: -1.62% [at 11.4 µM] |
| CCOC(=O)c1cnc(N(C)C)nc1SC(=N)N | inconclusive: 7.94 µM [inhibitor, single point] | – |
| CC1Cc2ccccc2N1C(=O)CSC1=NCCS1 (stereo not given) | inconclusive: 39.8 µM [inhibitor, single point] | – |
| O=c1[nH]c2ccc(Cl)cc2c(-c2ccccc2)c1N1CCN(c2ccccn2)CC1 | – | inactive: -3.18% |
| O=C(CCN1C(=O)c2ccccc2C1=O)OCn1nnc2ccccc2c1=O | inconclusive: 0.0316 µM [inhibitor, partial curve, poor fit] | – |
| COC(=O)[C@@H]1C[C@H]1[C@@H](NC(C)=O)c1ccccc1 | inconclusive: 7.94 µM [inhibitor, single point] | – |
| COc1ccc(S(=O)(=O)CCC(=O)N2CC(=O)N(CCc3ccccc3)C(=O)C2)cc1 | inconclusive: 31.6 µM [inhibitor, single point] | – |
| Cc1ccc(-c2cc(C(F)(F)F)n3nc(C(=O)N4CCCC4)cc3n2)cc1 | inconclusive: 1.26 µM [inhibitor, single point] | – |
| O=C1CC(Nc2ccc(N3CCOCC3)cc2)C(=O)N1c1cccc(C(F)(F)F)c1 (stereo not given) | inconclusive: 39.8 µM [inhibitor, single point] | – |
| O=C(NCc1ccco1)C1c2ccccc2Oc2ccccc21 | inconclusive: 25.1 µM [inhibitor, single point] | – |
| COc1ccc2[nH]cc(CCNc3ccnc(-c4ccoc4)n3)c2c1 | active: 25.1 µM | – |
| Cn1c(C(=O)NCCCN2CCOCC2)cc2c(=O)n(C)c3ccccc3c21 | inconclusive: 31.6 µM [inhibitor, single point] | – |
| O=C(c1ccco1)N1CCN(C(=O)c2cccn3c(=O)c4c5c(sc4nc23)CCCC5)CC1 | – | inactive: 3.93% |
| CC(=O)c1c(C)nn(C(=O)c2cccs2)c1C | inconclusive: 15.8 µM [inhibitor, partial curve] | – |
| O=C1[C@@H]2[C@H]3C(=CC[C@@H]2C(=O)N1Cc1ccccc1)C1(OCCCO1)[C@H]1O[C@@H]1[C@H]3O | inconclusive: 5.01 µM [inhibitor, single point] | – |
| COc1cc(C(=O)N2CCN(c3cccc(C)c3C)CC2)cc(OC)c1OC | – | inactive: -5.03% |
| CCOCCn1c(SCCCc2ccccc2)nc2c1c(=O)[nH]c(=O)n2C | inconclusive: 39.8 µM [inhibitor, single point] | – |
| O=C(CN(C(=O)CNS(=O)(=O)c1ccccc1)c1ccc2c(c1)OCCO2)NC1CCCCC1 | – | inactive: -4% |
| O=C(CSc1ncnc2c1oc1ccccc12)N1CCc2ccccc2C1 | – | inactive: 15.5% |
| c1ccc(-c2nc3ccccc3c3nncn23)cc1 | – | inactive: 10.5% |

| SMILES | Potency | activity change, negative = inhibition |
| --- | --- | --- |
| Cc1ccc(-c2noc(-c3cccs3)n2)cc1 | – | inactive: -3.54% |
| Clc1ccccc1-c1nc(-n2ccnc2)c2ccccc2n1 | inconclusive: 25.1 µM [inhibitor, single point] | – |
| COc1ccccc1CN1CC[C@@]2(CCCN(C(=O)c3ccco3)C2)C1 | – | inactive: -2.34% |
| COc1cc2c(cc1OC)-c1cc(Nc3ccc4c(c3)OCCO4)nc(=O)n1CC2 | inconclusive: 39.8 µM [inhibitor, single point] | – |
| N#C/C(=C\c1c(N2CCOCC2)nc2ccccn2c1=O)S(=O)(=O)c1ccccc1 | – | inactive: 5.04% |
| COc1ccccc1CN1CCCC2(CCN(C(=O)c3ccco3)CC2)C1 | – | inactive: 6.84% |
| COc1ccc(NC(=O)Nc2cccs2)cc1OC | inconclusive: 25.1 µM [inhibitor, partial curve] | – |
| O=C1CN(C(=O)CCCc2c[nH]c3ccccc23)c2ccccc2N1 | – | inactive: 11.9% |
| CCOC(=O)c1[nH]c2ccc(OCC)cc2c1NC(=O)CN1CCC2(CC1)OCCO2 | inconclusive: 39.8 µM [inhibitor, single point] | – |
| N#Cc1c(-c2ccco2)cc(-c2ccc(F)cc2)nc1N | inconclusive: 39.8 µM [inhibitor, single point] | – |
| CC(C)C[C@H](N)c1nnc(S(=O)(=O)Cc2ccc(F)cc2)o1 | inconclusive: 2 µM [inhibitor, full curve] | – |
| O=C1CSC(c2nn(-c3ccccc3)cc2-c2cc3ccccc3oc2=O)N1Cc1ccco1 (stereo not given) | inconclusive: 31.6 µM [inhibitor, single point] | – |
| O=C(O)C1C2C=CC(C2)C1C(=O)Nc1cccc(F)c1 (stereo not given) | – | inactive: -1.74% |
| COC(=O)c1sc2nc3c(cc2c1N)C(=O)CC(C)(C)C3 | – | inactive: 1.38% |
| COc1ccc2cc3cc(C(=O)NCCN4CCN(Cc5ccccc5)CC4)oc3nc2c1 | active: 12.6 µM | – |
| COc1ccc(-c2nnc3sc(CCN4C(=O)c5ccccc5C4=O)nn23)cc1 | inconclusive: 39.8 µM [inhibitor, single point] | – |
| CCOC(=O)N1CCN(c2cc(=O)n(-c3ccc(OC)cc3)c(=O)[nH]2)CC1 | inconclusive: 25.1 µM [inhibitor, partial curve] | – |
| COc1ccccc1-c1nc(C#N)c(N2CCN(Cc3ccccc3)CC2)o1 | inconclusive: 31.6 µM [inhibitor, single point] | – |
| CN(CCc1ccccn1)C(=O)c1nn2c(C(F)(F)F)cc(-c3ccco3)nc2c1Cl | – | inactive: -12.1% [at 11.4 µM] |
| Cc1cc(NCCCn2ccnc2)n2c(nc3ccccc32)c1C#N | active: 31.6 µM | – |
| CNc1nc(C)nc(-c2ccccc2O)n1 | inconclusive: 20 µM [inhibitor, single point] | – |
| CCOc1ccc(C2C(C#N)=C(N)N3C(=C2C#N)Sc2ccccc23)cc1 (stereo not given) | inconclusive: 15.8 µM [inhibitor, partial curve] | – |
| N=c1c[n+](N2CCOCC2)[n-]o1 | inconclusive: 3.16 µM [inhibitor, full curve] | – |
| CCC(Sc1ccc2nnc(-c3cccnc3)n2n1)C(=O)O (stereo not given) | – | inactive: -16.3% |
| CC(=O)N(Cc1cc(=O)[nH]c2ccccc12)c1cccc(C)c1 | inconclusive: 39.8 µM [inhibitor, single point] | – |
